Measured values as given in the RNAGym collection of RNA variant scans (doi:10.1073/pnas.2313332121).
Variants at the floor of the assay are shown more often than the library holds them.

B1: TPR 5TU (parent)
chain: GGAUCUUCUCGAUCUAACAAAAAAGACAAAUCUGCCACAAAGCUUGAGAGCAUCUUCGGAUGCAGAGGCGGCAGCCUUCGGUGGCGCGAUAGCGCCAACGUUCUCAACUAUGACACGCAAAACGCGUGCUCCGUUGAAUGGAGUUUAUCAUG

Variants of: B1
Experiment: polymerase ribozyme fitness, log enrichment relative to wild type (log ratio); higher = more active; in vitro selection for triplet polymerase activity
Outline: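 Mutant libraries of each subunit of a heterodimeric triplet polymerase ribozyme were built by PCR and transcribed. Each library went through one round of in vitro selection in triplicate: annealing with biotinylated primer, partner subunit and triplets, frozen incubation at −7 °C, gel excision of extended constructs, streptavidin-bead capture and RT-PCR. Input and output libraries were Illumina-sequenced; only genotypes with ≥10 input reads and ≥1 read per output were kept. Fitness is log2(genotype enrichment/wild-type enrichment), using inverse-variance-weighted replicate averages.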

| Variant | polymerase ribozyme fitness (log ratio) |
| --- | --- |
| C14G A30U U33G A49C A52U C72G A73G C87U U144G | ≤ -4.2 |
| C14G A20U A22C G25U A64C C75A U90C G141A G143C | ≤ -4.2 |
| C14G A20U A28C G42A C103U A122U U145C U151A | ≤ -4.2 |
| C14G A20C A40C A89C | -4.13 |
| C14G A23U G67C C79A C85G G143U | ≤ -4.2 |
| C14G G48A A119G | -3.43 |
| C14G C54A C76A G84A | ≤ -4.2 |
| C14G A24U | -3.18 |
| C14G C87U G141A | -2.56 |
| C14G A20C G46A G58A C63U C96U C108G G140C G143U | ≤ -4.2 |
| C14G G42C G70A G88C U127C | ≤ -4.2 |
| C14G A47G A52C A64G C87A G126A | ≤ -4.2 |
| C14G C27G A52C G83U G86C A91C G92A C96A G112C | ≤ -4.2 |
| C14G A19C G34U G86A G117A U151A | ≤ -4.2 |
| C14G A39U U44G G58U A120U C123U G143C | ≤ -4.2 |
| C14G C27G C43G G68U G80C U101C | ≤ -4.2 |
| C14G A20U A39U U82A C87A G124A | ≤ -4.2 |
| C14G A23C C32G U55C U90G C99U A121C A137G | ≤ -4.2 |
| C14G A39C A52G C95U A142C U144G | ≤ -4.2 |
| C14G A66U C69A | ≤ -4.2 |
| C14G C85U C96U A113C A122U G143A | ≤ -4.2 |

| Variant | polymerase ribozyme fitness (log ratio) |
| --- | --- |
| C14G C18G A52C U77C C87A A106G U146C | ≤ -4.2 |
| C14G G48C U146A | -4.06 |
| C14G A89U C99A A107C | ≤ -4.2 |
| C14G G59A C87U | -3.82 |
| C14G A52C A98G C103G | ≤ -4.2 |
| C14A U82G C96G | -2.31 |
| C14G A24U U104C A120C A138U | ≤ -4.2 |
| C14G C95G C96G | -4.07 |
| C14G A19G C85U G86C | ≤ -4.2 |
| C14G G48C G59C C93A G141C | ≤ -4.2 |
| C14G A73U G84C C87A G124C | ≤ -4.2 |
| C14G A47C C85G C95U U139C U148G | ≤ -4.2 |
| C14G A30U | ≤ -4.2 |
| C14G A60U G86U | ≤ -4.2 |
| C14G C32G A52C A97U | ≤ -4.2 |
| C14G A107G | ≤ -4.2 |
| C14G C75G G94A | ≤ -4.2 |
| C14G A97U A98G | -2.74 |
| C14G A22G A26C C54U G86A A91U G133C | ≤ -4.2 |
| C14G C87A C93A | ≤ -4.2 |
| C14G A28C G70A U127G U146G | ≤ -4.2 |

| Variant | polymerase ribozyme fitness (log ratio) |
| --- | --- |
| C14G A20U C105U C125G G140A | ≤ -4.2 |
| C14G A64C G70C C114A A122C | ≤ -4.2 |
| C14G A39U G74C G81U C87U C103G G126A G133C G152U | ≤ -4.2 |
| C14G C27G A37U A40U G133C | ≤ -4.2 |
| C14G A19C | -1.66 |
| C14G A40C G42C G48A G86U G92U C99A | ≤ -4.2 |
| C14G A52C G58A C96U C125G | -3.92 |
| C14G A16G A19U A30C G59A G71A G74C U102A G140U | ≤ -4.2 |
| C14G A24C A49G G92C | ≤ -4.2 |
| C14G C85U C103U | -3.1 |
| C14G A24U A26G G50C C85U C103A A119G | ≤ -4.2 |
| C14G G42U G83C C108A G133U U146G | ≤ -4.2 |
| C14G A19G C54U C76G U82G A119G G128C U134C | ≤ -4.2 |
| C14G A30C A39G A110G | ≤ -4.2 |
| C14G A24U G34A G42C G59A C87U A107G G141A A147G | ≤ -4.2 |
| C14G C93U | -3.66 |
| C14G C72U | -3.04 |
| C14G A16U A39G G124A | ≤ -4.2 |
| C14G G42C C79A G86U A89C G152A | ≤ -4.2 |
| C14G G25U C36A U55G G65C C75U G141C | ≤ -4.2 |
| C14G C43G C51U C93U C149A | ≤ -4.2 |

| Variant | polymerase ribozyme fitness (log ratio) |
| --- | --- |
| C14G C75A G84U | -4.14 |
| C14G A24C A41U A64U C76G U90C C99U | ≤ -4.2 |
| C14G G58A | -2.24 |
| C14G G58C C75G C87U | ≤ -4.2 |
| C14G A23C C38U C95G A98G A107G | ≤ -4.2 |
| C14G A16U C32U A40G G50U U55A G58A A89G C95A C114A G141C | ≤ -4.2 |
| C14G A22C G42U U45A C93A A138U | ≤ -4.2 |
| C14G A30C U55G C85A G143C U144C | ≤ -4.2 |
| C14G A40C A73U G83U C114U A142U | ≤ -4.2 |
| C14G A23C G25U A115G C116A A120U | ≤ -4.2 |
| C14G A91U G136C | ≤ -4.2 |
| C14G C18U C51A C79U G84C U109A C123G U144G | ≤ -4.2 |
| C14G A17U C54G C93A G100A A121C C123A U144G | ≤ -4.2 |
| C14G A73G C85A A97G G117U A119G G133A A138U C149U G152U | ≤ -4.2 |
| C14G A19U A30C G46A G50C C72U G74A A91C U139A | ≤ -4.2 |
| C14G C32A G59C G70A | ≤ -4.2 |
| C14G A24G C76A C87U C99A C125G | ≤ -4.2 |
| C14G A21U A52G C85A C118G G128A G141C | ≤ -4.2 |
| C14G A21U A28G G81U C96G G140U U144A | ≤ -4.2 |
| C14G A39G U53A C54U C93A | ≤ -4.2 |
| C14G C57U G86U A147G | ≤ -4.2 |
